For 22 molecules, binding signal results are on record in paper PMC12136788.

To fix the notation:
T1: UNK ZnF1-3 (human, UniProt Q9C0B0 31-174)
T1 sequence: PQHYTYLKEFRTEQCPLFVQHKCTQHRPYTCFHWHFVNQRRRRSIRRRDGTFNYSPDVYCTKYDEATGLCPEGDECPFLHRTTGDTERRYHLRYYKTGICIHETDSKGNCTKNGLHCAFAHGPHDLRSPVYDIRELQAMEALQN

B1: 32238706_32238826_741_3pUTR_ENSMUSG00000035764_ENSMUST00000042732|mouse|control|control (ssRNA)
RNA: GGGAGUUCUACAGUCCGACGAUCCACUGAAACCAAUCUUGGUCCUUGCACCAUCAGUGCUCUGAGCGAUGGGGUUCCGAUGUAAUGUAAAACCAUUCUUCUUGAUAUAGACAUUCCUGGAGCAGUCAUUCGUGCUGAAGGCAUCAACAGAGGAUUGAGCAUCA
B2: chr1:25551555:25551556:-_ENSG00000117614_ENST00000236273|hu_mus|FALSE|FALSE (ssRNA)
RNA: GGGAGUUCUACAGUCCGACGAUCUAAAACCAUUCUGUCAAUUUCCUCUGAGGAAGGCACGUGCGUCCCAUGGAGAAGACUGUUGGAUGUUGGGAAAAAAUCUUCUCCAUGCUUCUCUCUCUGUCGCUCAUAGCUUUCCAUGUCCAACAGAGGAUUGAGCAUCA
B3: chr16:57198444:57198445:-_ENSMUSG00000022749_ENSMUST00000023431|mus_mus|FALSE|FALSE (ssRNA)
RNA: GGGAGUUCUACAGUCCGACGAUCCCUAAAAGAAGCUGGCGUCUUACUACAGUAAUACUGAGCCAAAGAGAACAGGUCUUCUAUGUCUUCCAGAUUCAGGCUGGCCGGGGUACUUUCCAAAAAGCGGAUAACUUCUUCUUUGCUCAACAGAGGAUUGAGCAUCA
B4: chr10:122565287:122565288:-_ENSMUSG00000020124_ENSMUST00000020334|mus_hu|FALSE|FALSE (ssRNA)
RNA: GGGAGUUCUACAGUCCGACGAUCAAUUUUGGGGACAACCACUUUGUACUGCAUAGGUUUGGUAAGUGGAUCCAUUCUAACUAAGUAAACUUCCAAGGUGCGUUCUUUUUUCAUGGGCAAUGGAAGUGUCAAGUAACAAAAAGGCAACAGAGGAUUGAGCAUCA
B5: chr11:90138519:90138520:+_ENSMUSG00000003948_ENSMUST00000004050|mus_mus|FALSE|FALSE (ssRNA)
RNA: GGGAGUUCUACAGUCCGACGAUCUUGGGUUUUCUUAAAAAGGAAGUUGUAUUACUAUUGCACUGACUUUGACAACCUGACCUACUUAAUUUAGAAAAAAAUCAUCGUAGUUAAAAUCUGUAAAAGAAAAAUACAAAAAUUUCUCAACAGAGGAUUGAGCAUCA
B6: chr4:107545374:107545375:+_ENSMUSG00000028613_ENSMUST00000106731|mus_mus|FALSE|FALSE (ssRNA)
RNA: GGGAGUUCUACAGUCCGACGAUCGUUGAUGGAUAGCCACAAAGCAUAAUUUUAUUUACAAAAAAAUCAAGCCCCUCAAACCUAAAAAAGCUCUCAACUCAAACAUCCUCUGUAAAUACUGUAUUCAAAUGAUGAGUGAAGUUUCAACAGAGGAUUGAGCAUCA
B7: chr2:48026839:48026840:+_ENSG00000116062_ENST00000540021|hu_hu|hu_hu_hu_mus_False|8_108 (ssRNA)
RNA: GGGAGUUCUACAGUCCGACGAUCAUAGUGUGCCACUAGCGUCCUAAAUCUGGAACAGUGGCGGUCAUCCGAAAACUGGCCGAUGAAAAACUUGCCCAGUGAAGUGUCCACAAAGCAAACACCAUACGCACGAGUAUGACCAGACAACAGAGGAUUGAGCAUCA
B8: chr7:117217587:117217588:+_ENSMUSG00000061079_ENSMUST00000084727|mus_hu|motif|central (ssRNA)
RNA: GGGAGUUCUACAGUCCGACGAUCGAUAUAAGCUGUGGUACCAUCUUCCAGCUGAACCGCCUGUAAUGCACUCUGGUCAUAACGGUUACUUUUAGGUAUGGGUACAUGUUGAACAUAGGCCGCAGAACCAUCUUCCAACUGAAUCAACAGAGGAUUGAGCAUCA
B9: chr12:48362563:48362564:+_ENSG00000134291_ENST00000256686|hu_hu|hu_hu_hu_mus_False|68_98 (ssRNA)
RNA: GGGAGUUCUACAGUCCGACGAUCUCCGUCAAGCCCUUCAAGCCCCACUUGCGGGGGAAACUGUAAUAAUUCUAACUGGGGAAGGAAAAGAAACGCCAAAAACUUUCCAAAAAGCGGGGGUGGGGUGAGGCGGGAGGGGGAGGUCAACAGAGGAUUGAGCAUCA
B10: 39542460_39542580_410_CDS_ENSG00000078142_ENST00000262039|human|control|control (ssRNA)
RNA: GGGAGUUCUACAGUCCGACGAUCCGAAACCGUUGUUCCUCCUACAGGCACUGCUUUUCCGGGACCAUACACAUCCCAUAUGGUGAGGGCCACUUGGGCAUUCCUGGGCAGGUCAGGGUAUUUUACUGGUAGUUUCAGCCAUUCCAACAGAGGAUUGAGCAUCA
B11: 64702431_64707660_2041_CDS_ENSMUSG00000029174_ENSMUST00000119756|mouse|control|control (ssRNA)
RNA: GGGAGUUCUACAGUCCGACGAUCUUUAAGACACGGAGUGAUUUCUUCAUAGUCAAGCUUGAGGCGUUUGUUCAGCAAAUCGUUUUCAGAGGCUUGUAGCUUCUGAUUCUCCUUCUCCAUCCUGAGCAGCAGGAUCUGCUGCAACAACAGAGGAUUGAGCAUCA
B12: chr7:7679991:7679992:-_ENSG00000106399_ENST00000396682|hu_hu|hu_hu_hu_mus_False|1_88 (ssRNA)
RNA: GGGAGUUCUACAGUCCGACGAUCUGGGAUGAAUCUUUUCCAGCUUCCCUACGAAGCACACGGGCCGGUCGAUAUACUGUGGUAACAUGCUGGCGUUGACGCGCGCUUUGGGGAGCUGCAUUAUGUCCUCCAUGAUUAUGGUCCCAACAGAGGAUUGAGCAUCA
B13: chr10:33214929:33214930:-_ENSG00000150093_ENST00000302278|hu_hu|hu_hu_hu_mus_True|8_18 (ssRNA)
RNA: GGGAGUUCUACAGUCCGACGAUCAACAAGUUCAUUGAAAAACUCUCCUCUGUCAGUAAGACUAAGCACAUUUUUGUAGCUAAAUGGGCUGGUGCAGUUUUGUUCACUUGUACAAGGGUUCCUGAGCUUAGCUGGUGUUGUGCUCAACAGAGGAUUGAGCAUCA
B14: 41082777_41082897_62_3pUTR_ENSMUSG00000036241_ENSMUST00000040008|mouse|control|control (ssRNA)
RNA: GGGAGUUCUACAGUCCGACGAUCCCUCACACUCGGGCCGGGCGGGGGCGGGCCUAAGGGAGUUGGGGGAAUCCGCUCCGGGCUCCGGGCCUCCCCCCCCCGGAGGGGGCCUCUACUUAUGGGGGGGGGAGUGGAGGUGGAAGCCAACAGAGGAUUGAGCAUCA
B15: chr9:3385818:3385819:+_ENSMUSG00000025899_ENSMUST00000053407|mus_mus|FALSE|FALSE (ssRNA)
RNA: GGGAGUUCUACAGUCCGACGAUCCCUACAAAAGUUGGAGUUAUAAAAAGAUUUUAACACAAAAGUUUAUCUUCAAAUGCUAUAUAUAUACAAACAUCACAGACUUUUCACAAGUUAAUGUCAAACACCAUACUUAAAAGGCAUCAACAGAGGAUUGAGCAUCA
B16: chr12:39756943:39756944:-_ENSG00000139116_ENST00000544797|hu_mus|hu_hu_hu_mus_False|1_8 (ssRNA)
RNA: GGGAGUUCUACAGUCCGACGAUCGGUUUGGCUGUUACCCCCAAGGGAAUCCUGCAAGAGUCUUGUCAGCUUAGAGUCUCUGUAAGGGACAUGGGUGGCUCUCUUGCUCUUGUCCCCCAAGGCGCUGAUUACAUUGCCAAGUGCCAACAGAGGAUUGAGCAUCA
B17: 39582523_39587115_1434_3pUTR_ENSMUSG00000025862_ENSMUST00000069619|mouse|control|control (ssRNA)
RNA: GGGAGUUCUACAGUCCGACGAUCGGUGAGCUGAAUAAACCAGAUGAUAGACAUUUUCACAAUCUUCUGCAGUUAGAACUUCUUCACUACUCUGUAAAACAAGAGUGAGUAACUUUAUUGCUUGUACUGCAACAUCAUAUUCUUCAACAGAGGAUUGAGCAUCA
B18: 88685193_88685313_3913_3pUTR_ENSG00000107779_ENST00000372037|human|control|control (ssRNA)
RNA: GGGAGUUCUACAGUCCGACGAUCUAUUAUCCAUAUGCAAAUUUACUUAUCUUGAUGAACACUUCAGACUUUAAUUAUGGCAGAUGAAACUUAUUAAUCAAAAUGGUUAAGGCAAUUUUCAAAUUUGUGAAAUUUGAUGUGCAGCAACAGAGGAUUGAGCAUCA
B19: chr1:46159212:46159213:+_ENSG00000159596_ENST00000372025|hu_hu|motif|central (ssRNA)
RNA: GGGAGUUCUACAGUCCGACGAUCUCUGAUCCCACCCAAGAAAGAUAGGAAACUGGCUCCAUAAGCCAUCUGAGUAAAAGCGGAUAUGGGAAUAUAAGUUUUUGUCAUCAGCAUGACCAGUGGUGGAGCAACGAAGGGGAUUAGCAACAGAGGAUUGAGCAUCA
B20: chr18:33606911:33606912:-_ENSG00000141425_ENST00000399022|hu_mus|motif|central (ssRNA)
RNA: GGGAGUUCUACAGUCCGACGAUCUUCCAAUUUAUGUUCUUUCUCUGCAAGGGCUUCCUUUUGACAACGAAGAAAAUCUGCGGACAUUCGGGUGAGUUGCUUUCUAUCAUCUAUUUCUGCCGCCAGUCUGCCAUUAUAAUCUGCCAACAGAGGAUUGAGCAUCA
B21: chr15:40510687:40510688:+_ENSG00000156970_ENST00000287598|hu_hu|FALSE|FALSE (ssRNA)
RNA: GGGAGUUCUACAGUCCGACGAUCCCAGAAGGACCCAUCCCAGAAGACCUGUAGGUGUUCCUUGAACAAUAGUAAAUGUGCUAAAUCUGCUAUACCAAACAGGUCUACCUGGUAGGGAGAAGAACAGUUAGCCAGGAUCUUUUGCAACAGAGGAUUGAGCAUCA
B22: chr16:94651144:94651145:+_ENSMUSG00000040785_ENSMUST00000117648|mus_hu|mus_mus_mus_hu_True|68_108 (ssRNA)
RNA: GGGAGUUCUACAGUCCGACGAUCAUUCUCUUGGAUCAAGUGGCGAAUAACAUAGUCCACUGCUUCAUGGACAAAAUUUCUGCUAGAAAAACAGGUUGUAUAGUCUUCUGUGCUCAAAACUUUCCAAGAAAGCAAUUCUUUGAGCAACAGAGGAUUGAGCAUCA

The other results are listed elsewhere or left out.

The target of this experiment is T1, UNK ZnF1-3. The experiment in a line: nsRBNS (natural sequence RNA bind-n-seq); RBNS binding buffer (assumed for nsRBNS): 25 mM Tris pH 7.5, 150 mM KCl, 3 mM MgCl2, 0.01% Triton X-100, 500 ug/ml BSA, 20 U/ml SUPERase-In, 4 C; UNK is unkempt and MSI1 is Musashi-1; names of the RNAs are library labels; protein concentration not given here; high values mean tight binding.
For the molecule B1, the binding signal was found to be 0.54 enrichment R.
Consider B2, for which the binding signal came out at 0.627 enrichment R.
In the case of B3, the binding signal amounted to 1.27 enrichment R.
The figure for B4 is 1.14 enrichment R; for B5 it is 2.1 enrichment R.
As for B6, the figure is 1.47 enrichment R; as for B7, 1.05 enrichment R.
As for B8, the figure is 0.849 enrichment R; as for B9, 2.4 enrichment R; as for B10, 1.01 enrichment R.
B11 displayed a binding signal of 0.521 enrichment R.
For the molecule B12, the binding signal stood at 0.48 enrichment R.
The figure for B13 is 0.934 enrichment R; for B14 it is 1.01 enrichment R; for B15 it is 0.859 enrichment R.
With B16, the binding signal was 0.492 enrichment R.
In turn, B17 had a binding signal of 0.764 enrichment R.
As for B18, the figure is 1.22 enrichment R; as for B19, 1.68 enrichment R; as for B20, 0.682 enrichment R.
B21: the binding signal was determined as 0.345 enrichment R.
As for B22, the figure is 0.52 enrichment R.
